# According to PMC4336329 (PLoS ONE, 2015):
# In all, about 310,000 compounds went through this assay and about 14,000 (4.5%) showed an effect of 50% or more. The effect is printed as a negative number. Some of the results follow.
# Target: human ether-à-go-go-related gene (hERG) potassium channel (human, UniProt Q12809)
# Assay: primary screen, population patch clamp on CHO cells stably expressing hERG
# 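Also: peak tail current of the secondary pulse compared with the same well before compound.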
# human ether-à-go-go-related gene (hERG) potassium channel, sequence (Q12809 whole entry, looked up): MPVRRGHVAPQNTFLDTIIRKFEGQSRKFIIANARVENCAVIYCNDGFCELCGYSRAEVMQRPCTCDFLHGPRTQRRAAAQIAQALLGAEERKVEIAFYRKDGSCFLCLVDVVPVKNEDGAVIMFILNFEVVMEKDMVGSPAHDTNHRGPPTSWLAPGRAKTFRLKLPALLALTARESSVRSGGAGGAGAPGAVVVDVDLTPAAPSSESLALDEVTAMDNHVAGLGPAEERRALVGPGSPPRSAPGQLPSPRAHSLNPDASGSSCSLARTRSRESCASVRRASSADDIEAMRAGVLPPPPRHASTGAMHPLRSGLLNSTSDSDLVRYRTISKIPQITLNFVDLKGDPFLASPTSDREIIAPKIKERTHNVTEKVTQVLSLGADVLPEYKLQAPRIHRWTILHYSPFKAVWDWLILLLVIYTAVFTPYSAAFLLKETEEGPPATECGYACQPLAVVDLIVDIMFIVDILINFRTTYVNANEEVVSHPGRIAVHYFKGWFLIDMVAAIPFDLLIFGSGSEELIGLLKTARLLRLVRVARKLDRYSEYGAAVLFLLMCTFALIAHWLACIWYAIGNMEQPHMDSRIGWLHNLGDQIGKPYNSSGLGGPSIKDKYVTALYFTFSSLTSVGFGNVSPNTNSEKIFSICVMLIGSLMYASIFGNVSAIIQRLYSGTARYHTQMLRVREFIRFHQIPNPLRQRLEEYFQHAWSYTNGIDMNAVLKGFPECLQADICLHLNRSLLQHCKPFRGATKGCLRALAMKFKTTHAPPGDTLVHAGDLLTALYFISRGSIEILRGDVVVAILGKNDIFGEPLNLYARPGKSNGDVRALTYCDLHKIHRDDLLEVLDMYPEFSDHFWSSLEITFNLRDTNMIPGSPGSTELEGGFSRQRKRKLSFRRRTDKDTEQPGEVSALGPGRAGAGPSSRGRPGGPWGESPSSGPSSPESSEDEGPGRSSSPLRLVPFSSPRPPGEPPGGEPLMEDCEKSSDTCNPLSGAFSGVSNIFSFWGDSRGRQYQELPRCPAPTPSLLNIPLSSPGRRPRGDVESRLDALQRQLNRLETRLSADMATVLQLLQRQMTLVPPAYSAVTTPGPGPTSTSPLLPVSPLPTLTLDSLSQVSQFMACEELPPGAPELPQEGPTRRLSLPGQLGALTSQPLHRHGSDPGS
row,SMILES,"hERG current change (%, negative = inhibition) at 10uM"
1,CCOc1ccc(-n2c(C)cc(/C=N/Nc3nc(C)cc(=O)[nH]3)c2C)cc1,30.2%
2,CCn1c(SCC(=O)N(C)C)nc2cc(S(=O)(=O)N3CCOCC3)ccc21,-1.91%
3,O=C(c1ccccc1)c1ccc2cc(O)ccc2c1,-8.81%
4,CCN1CCN(c2nn3c(=O)c4ccccc4nc3c3ccccc23)CC1,-72.7%
5,COc1ccc(CC(=O)OC(C)C(=O)NCc2ccc3c(c2)OCO3)cc1OC (stereo not drawn),-6.66%
6,COC(=O)Cn1c(C)nc2c(sc3nc(C)cc(C)c32)c1=O,-8.44%
7,CCCc1nnc(SCC(=O)N2CCCC2)n1CC1CCCO1 (stereo not drawn),-1.61%
8,CCC/C(O)=C1\C(=O)CCCC1=NC(C)C(=O)O (stereo not drawn),2.15%
9,CCC(c1nnnn1Cc1ccc(OC)cc1)N1CCN(C(=O)c2ccco2)CC1.Cl (stereo not drawn),-55.5%
10,O=C(NCCNCc1ccc(F)cc1)c1ccco1.O=C(O)C(=O)O,9.99%
11,CN1CCc2[nH]c3ccc(C(=O)NN)cc3c2C1,5.22%
12,COC(=O)C1=C(C)N(C)C(C)=C(C(=O)OC)C1c1ccsc1,3.35%
13,Cc1cc(C)c(C)c(Cn2c(CO)nc3ccccc32)c1C,-4.5%
14,CCOC(=O)C1CCN(S(=O)(=O)c2cccc(-c3cn4cccnc4n3)c2)CC1,-24.7%
15,C#CCN1C(=O)S/C(=C\c2ccc(-c3ccc(Cl)c(C(=O)O)c3)o2)C1=O,19.7%
16,Cc1cc(C)nc(SCCN2CCOCC2)n1.Cl,15.5%
17,COCc1cc(OC(=O)N(C)C)nc(-c2ccccc2)n1,9.91%
18,Cc1cccc(NC(=O)COc2ccc(/C=C\c3[nH]c(=O)[nH]c(=O)c3[N+](=O)[O-])cc2)c1,-3.03%
19,NC(=O)NNC(=S)Nc1cccc2ccccc12,24.9%
20,CCCCc1ccc(NC(=S)NCc2cccc(OC)c2)cc1,8.67%
21,O=c1c(Cl)c(NCCO)cnn1-c1cccc(Cl)c1,3.96%
22,COc1ccc([N+](=O)[O-])cc1-n1cccc1,-7.21%
23,C[n+]1c(-c2ccccc2)c2cc(N)ccc2c2ccc(N)cc21.[Br-],15.4%

row,SMILES,"hERG current change (%, negative = inhibition) at 10uM"
1,O=C(O)c1ccc(Cl)c(S(=O)(=O)Nc2ccccc2C(=O)Nc2ccc(Cl)cc2)c1,16.9%
2,Cc1ccc(C)c(S(=O)(=O)N(C)C2CCS(=O)(=O)C2)c1 (stereo not drawn),-3.44%
3,COc1cc(NC(=O)CCc2c(C)nc3nc(C)nn3c2C)cc(OC)c1,-9.8%
4,COc1ccc(OC)c(NS(=O)(=O)c2c(C(=O)N3CCCCCC3)c(C)n(C)c2C)c1,3.61%
5,CCC(c1nnnn1C(C)(C)CC)N1CCN(c2ccccc2F)CC1 (stereo not drawn),30.6%
6,NS(=O)(=O)c1ccc(SCc2ccccc2)nc1,-0.995%
7,CCN1CCN(c2ccc(NC(=O)c3ccc(F)cc3)cc2Cl)CC1,-75.6%
8,CCCC(C)c1nc(C(N)=O)c2[nH]c(=O)n(-c3ccc(OC)c(OC)c3)c2n1 (stereo not drawn),12.6%
9,CCOC(=O)c1c(-c2ccc(OC)cc2)oc2cc(Br)c(O)cc12,10.4%
10,CC(=O)N1c2ccc(S(=O)(=O)N3CCC(C(=O)NC4CCCCC4C)CC3)cc2CC1C (stereo not drawn),12%
11,COC(=O)/C=C/C(=O)Nc1cccc(C(F)(F)F)c1,10.6%
12,O=C(c1cccc(S(=O)(=O)N2CCOCC2)c1)N1CCCC(C(F)(F)F)C1 (stereo not drawn),2.76%
13,C=CCOc1cccc(C2C(C(=O)c3ccco3)=C(O)C(=O)N2Cc2ccncc2)c1 (stereo not drawn),24%
14,CC(=O)Nc1cccc(Oc2cc(C#N)c(C#N)cc2N2CCCCCC2)c1,1.08%
15,CS(=O)(=O)c1ccc2nc(NC(=O)CN3CCOCC3)sc2c1,24.1%
16,O=C(NCCO)C(=O)NCC1OCCCN1S(=O)(=O)c1ccc2c(c1)OCCO2 (stereo not drawn),-27.8%
17,Cc1ccc(NC(=O)CCNS(=O)(=O)c2ccc3c(c2)CCC(=O)N3)cc1F,18.1%
18,COc1ccc(NC(=O)c2ccco2)cc1NC(=O)COc1ccccc1,1.24%
19,CCn1c(Cc2ccccc2)nnc1SCC(=O)Nc1ccccc1,-12.8%
20,O=C(NCCc1ccccc1)/C(=C\c1ccc([N+](=O)[O-])cc1)NC(=O)c1ccco1,-80.7%
21,COc1ccccc1-c1nnc(N(C)C(=O)C2CCCO2)s1 (stereo not drawn),-14%
22,N#C/C(=C/c1ccc(CNS(=O)(=O)c2ccccc2)o1)C(=O)NCc1ccccc1,-20.8%
23,Cc1cccc(NCCC(=O)c2ccc([N+](=O)[O-])cc2)c1C,7.68%

row,SMILES,"hERG current change (%, negative = inhibition) at 10uM"
1,CCOC(=O)c1c(NC(=O)c2cccs2)sc(C(=O)N(C)C)c1C,-10.9%
2,CCC(=O)Nc1ccc(NC(=O)c2cccc3c(Br)cccc23)cc1,3.96%
3,O=C(CSc1nc2ccc(Nc3nc(N4CCOCC4)nc(N4CCOCC4)n3)cc2s1)Nc1ccccc1F,15.4%
4,Cc1noc2ncnc(Oc3ccccc3Cl)c12,6.08%
5,COc1ccc2c(c1)c1ncn(CCN3CCCC3)c(=O)c1n2C,-42.5%
6,O=C1c2ccccc2-c2nnc(-c3ccc(O)cc3)cc21,12.6%
7,NC(=O)c1ccsc1NC(=O)COC(=O)Cc1ccccc1,-28.6%
8,CCc1c(O)nc(SCC(=O)Nc2ccc(Br)cc2)n(-c2ccc(C)cc2)c1=O,11.2%
9,O=C(N/N=C/c1ccco1)C1CC1c1ccccc1 (stereo not drawn),-4.18%
10,CCOc1cc(C(c2c(C)[nH][nH]c2=O)c2c(C)[nH][nH]c2=O)ccc1OS(=O)(=O)c1ccccc1,-4.25%
11,O=C(CCCNS(=O)(=O)c1cccc2nsnc12)NC1CCCCC1,2.47%
12,CC(=O)Nc1c2c(nn1-c1ccccc1C)CSC2,17.4%
13,Clc1ccc(N=C2SCC3CCCCN23)cc1 (stereo not drawn),-18.3%
14,CCCCC(O)(CCCC)C(=O)N/N=C(\C)c1ccc(Cl)cc1,-66.9%
15,O/N=C/c1ccc(-c2cc(Cl)ccc2Cl)o1,-3.51%
16,CCCCn1c(N)c(N(CC)C(=O)c2cc(CC)c(C)s2)c(=O)[nH]c1=O,-15.6%
17,O=C(N/N=C/c1ccccc1)c1ccc(OCc2ccccc2)cc1,16.7%
18,O=C(NCCNC(=O)c1ccc(Cl)cc1Cl)c1ccco1,3.04%
19,Cc1ccc(C(=O)Nc2onc(C)c2C#N)cc1,11.6%
20,Cc1cnc(NC2=NCCC2)s1,5.05%
21,Cc1ccc(O)c(NC(=O)c2ccc3c(c2)C(=O)N(Cc2ccco2)C3=O)c1,3.81%
22,Cc1ccc(O)c(N)c1,10.2%
23,O=C(Cn1ncc2c(=O)oc3ccccc3c21)NCC1COc2ccccc2O1 (stereo not drawn),-5.89%

row,SMILES,"hERG current change (%, negative = inhibition) at 10uM"
1,O=C(NCc1ccccc1)c1ccccc1NC(=O)C1CCCCC1,-3.3%
2,CCN1C(=O)[C@H]2[C@@H](c3ccc(-c4ccccc4)cc3)N[C@@](Cc3ccccc3)(C(=O)OC)[C@H]2C1=O.O=C(O)C(F)(F)F,-6.56%
3,Cc1cc(C)c(-n2[nH]nnc2=S)c(C)c1,21.7%
4,CC(NC(=O)Nc1ccc(F)cc1F)c1ccncc1 (stereo not drawn),9.6%
5,COc1ccc(C(=O)NCCS(=O)(=O)N(C)C2CCCCC2)cc1,-19.7%
6,Cc1nc(CN2CCN(C(=O)c3ccc(C(C)(C)C)cc3)CC2)cs1.Cl,-3.25%
7,CC(NS(=O)(=O)c1ccc(N)cc1)C1CC2CCC1C2 (stereo not drawn),-2.43%
8,COc1ccccc1N(C(=O)CN1C(=O)c2ccccc2S1(=O)=O)C(C(=O)NCC1CCCO1)c1ccc(F)cc1 (stereo not drawn),-5.06%
9,NS(=O)(=O)c1ccc(CNC(=O)Cc2c(F)cccc2Cl)cc1,22.2%
10,CCCc1nc(SCC(=O)N2CCc3ccccc3C2)c2ccccc2n1,-29.1%
11,COCCCNC(=O)Nc1ccc2c(c1)N(C)C(=O)CS2,4.45%
12,CCOC(=O)Cc1csc(NS(=O)(=O)c2ccc(OC)cc2)n1,8.9%
13,O=c1[nH]c(Cl)ccc1CN1CCOCC1,14.5%
14,CCNc1nc(=S)nc(NCc2ccccc2)[nH]1,14.5%
15,CCc1nnc2sc(-c3ccc(NC(=O)c4ccco4)cc3)nn12,0.717%
16,O=C(O)c1ccc2c3c(cccc13)C(=O)N(OS(=O)(=O)c1ccccc1)C2=O,12.6%
17,CCc1ccc2c(COC(=O)c3n[nH]c4ccccc34)cc(=O)oc2c1,-1.27%
18,CCN(CC)C(=O)COc1ccc(S(=O)(=O)N2CCCC2)cc1,12.3%
19,Cn1ncc([N+](=O)[O-])c1C(=O)Nc1ccc(-c2nc3ccccc3[nH]2)cc1,-25%
20,Cc1c(NS(=O)(=O)c2cccs2)cccc1-c1nc2cccnc2s1,2.89%
21,COc1cc(C=O)c(Br)cc1OCC(=O)NCCc1ccccc1,31.7%
